# Experimental data: the supplement of paper PMC4604168 (melanoma cell lines)
# The other results are listed elsewhere or left out. Repeats are few or missing, and single values can be far off.
# How the values were obtained:
# Assay in all cases: cell count relative to DMSO control; melanoma cells; higher = more viable cells
# Settings in all cases: library dose: low library concentration; 72 h
# [1] = system: MZ2-MEL
# [2] = system: MeWo
# [3] = system: RPMI7951
# [4] = system: RVH-421
# [5] = system: SkMel28
# [6] = system: SkMel30
# [7] = system: UACC62
# [8] = system: SkMel5
# [9] = system: UACC257
# 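Further: cell number obtained by counting DAPI-stained nuclei in high-throughput microscope images with image analysis software, screen run in 1,536-well plates.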
compound,measurement,setting,value
"CC[C@]1(O)C[C@H]2CN(CCc3c([nH]c4ccccc34)[C@@](C(=O)OC)(c3cc4c(cc3OC)N(C=O)[C@H]3[C@@](O)(C(=O)OC)[C@H](OC(C)=O)[C@]5(CC)C=CCN6CC[C@]43[C@@H]65)C2)C1 [vincristine] + C[C@]12O[C@H](C[C@]1(O)CO)n1c3ccccc3c3c4c(c5c6ccccc6n2c5c31)CNC4=O [Lestaurtinib] (first compound 0.0001 µM, partner dose 0.004 µM)",cell count,[1],85.1%
same,cell count,[2],89.3%
same,cell count,[3],51.2%
same,cell count,[4],92.4%
same,cell count,[5],67.9%
same,cell count,[6],61.8%
same,cell count,[7],65.3%
"N#CC[C@H](C1CCCC1)n1cc(-c2ncnc3[nH]ccc23)cn1 [ruxolitinib] + C[C@]12O[C@H](C[C@]1(O)CO)n1c3ccccc3c3c4c(c5c6ccccc6n2c5c31)CNC4=O [Lestaurtinib] (first compound 1 µM, partner dose 0.004 µM)",cell count,[1],95.6%
same,cell count,[2],92.6%
same,cell count,[3],93%
same,cell count,[4],101%
same,cell count,[5],85.5%
same,cell count,[6],85.8%
same,cell count,[7],102%
"CCN(CC)CCCCNc1ncc2cc(-c3cc(OC)cc(OC)c3)c(NC(=O)NC(C)(C)C)nc2n1 + C/C(O)=C(\C#N)C(=O)Nc1cc(Br)ccc1Br [LFM-A13] (first compound 0.1 µM, partner dose 2 µM)",cell count,[1],102%
same,cell count,[2],118%
same,cell count,[3],86.1%
same,cell count,[4],101%
same,cell count,[5],88.2%
same,cell count,[6],111%
same,cell count,[8],114%
same,cell count,[9],91.5%
same,cell count,[7],80.5%
"C[C@@H](N)c1ccc(C(=O)Nc2ccnc3[nH]ccc23)cc1 + C[C@]12O[C@H](C[C@]1(O)CO)n1c3ccccc3c3c4c(c5c6ccccc6n2c5c31)CNC4=O [Lestaurtinib] (first compound 0.4 µM, partner dose 0.004 µM)",cell count,[1],81.1%
same,cell count,[2],76.9%
same,cell count,[3],69.4%
same,cell count,[4],68.8%
same,cell count,[5],79.1%
same,cell count,[6],109%
same,cell count,[7],85.2%
"Cn1cncc1[C@@](N)(c1ccc(Cl)cc1)c1ccc2c(c1)c(-c1cccc(Cl)c1)cc(=O)n2C [tipifarnib] + O=C(Oc1ccc([N+](=O)[O-])cc1)N1CCC(C(O)(c2ccc3c(c2)OCO3)c2ccc3c(c2)OCO3)CC1 [JZL184] (first compound 0.01 µM, partner dose 1 µM)",cell count,[1],94.3%
same,cell count,[2],96.6%
same,cell count,[3],91.8%
same,cell count,[4],88.5%
same,cell count,[5],65.8%
same,cell count,[6],109%
same,cell count,[8],85.7%
same,cell count,[9],80.8%
same,cell count,[7],71.5%
"Cn1c(=O)n(-c2ccc(C(C)(C)C#N)cc2)c2c3cc(-c4cnc5ccccc5c4)ccc3ncc21 + N.N.[Cl][Pt][Cl] [cisplatin] (first compound 0.004 µM, partner dose 1.6 µM)",cell count,[2],73.5%
same,cell count,[3],92.6%
same,cell count,[4],87.3%
same,cell count,[5],60.9%
same,cell count,[6],76.7%
same,cell count,[7],89%
"COc1cc(Nc2ncc(F)c(Nc3ccc4c(n3)NC(=O)C(C)(C)O4)n2)cc(OC)c1OC [Tamatinib] + O=C(Oc1ccc([N+](=O)[O-])cc1)N1CCC(C(O)(c2ccc3c(c2)OCO3)c2ccc3c(c2)OCO3)CC1 [JZL184] (first compound 0.4 µM, partner dose 1 µM)",cell count,[1],89.4%
same,cell count,[2],99.4%
same,cell count,[3],95.5%
same,cell count,[4],98.6%
same,cell count,[5],91.7%
same,cell count,[6],64.1%
same,cell count,[8],87.2%
same,cell count,[9],76.1%
same,cell count,[7],89.4%
"Cc1cc(SCc2sc(-c3ccc(C(F)(F)F)c(F)c3)nc2C)ccc1OCC(=O)O + COc1cc2ncnc(Nc3ccc(Oc4ccccc4)cc3)c2cc1OC [SrcI1] (first compound 2 µM, partner dose 2 µM)",cell count,[2],90.4%
same,cell count,[3],103%
same,cell count,[4],145%
same,cell count,[5],107%
same,cell count,[6],132%
same,cell count,[8],102%
same,cell count,[9],98.4%
same,cell count,[7],92.1%
"Cn1sc(=O)n(Cc2ccccc2)c1=O + C[C@]12O[C@H](C[C@]1(O)CO)n1c3ccccc3c3c4c(c5c6ccccc6n2c5c31)CNC4=O [Lestaurtinib] (first compound 0.4 µM, partner dose 0.004 µM)",cell count,[1],109%
same,cell count,[2],88.4%
same,cell count,[3],84.7%
same,cell count,[4],118%
same,cell count,[5],107%
same,cell count,[6],113%
same,cell count,[7],104%
"Cc1cc(SCc2sc(-c3ccc(C(F)(F)F)c(F)c3)nc2C)ccc1OCC(=O)O + c1cc(-c2cnn3cc(-c4ccc(OCCN5CCCCC5)cc4)cnc23)ccn1 [Dorsomorphin] (first compound 2 µM, partner dose 0.4 µM)",cell count,[1],106%
same,cell count,[2],97.2%
same,cell count,[3],93.1%
same,cell count,[4],109%
same,cell count,[5],85.2%
same,cell count,[6],101%
same,cell count,[8],81.8%
same,cell count,[9],76%
same,cell count,[7],86.9%
"Cn1cncc1[C@@](N)(c1ccc(Cl)cc1)c1ccc2c(c1)c(-c1cccc(Cl)c1)cc(=O)n2C [tipifarnib] + C/C(O)=C(\C#N)C(=O)Nc1cc(Br)ccc1Br [LFM-A13] (first compound 0.01 µM, partner dose 2 µM)",cell count,[2],77.8%
same,cell count,[3],101%
same,cell count,[4],94.9%
same,cell count,[5],92.6%
same,cell count,[6],103%
same,cell count,[8],92%
same,cell count,[9],73.3%
same,cell count,[7],72.2%
"Cc1cc(SCc2sc(-c3ccc(C(F)(F)F)c(F)c3)nc2C)ccc1OCC(=O)O + O=c1cc(-c2cccc3c2Sc2ccccc2S3)oc(N2CCOCC2)c1 [KU55933] (first compound 2 µM, partner dose 1 µM)",cell count,[2],102%
same,cell count,[3],112%
same,cell count,[4],113%
same,cell count,[5],98.4%
same,cell count,[6],85.8%
same,cell count,[8],98.7%
same,cell count,[9],97.8%
same,cell count,[7],98.7%
"O=C(O)c1ccc(-c2c[nH]c3ncc(-c4ccccc4)cc23)cc1C1CCCC1 + Cc1cc(SCc2sc(-c3ccc(C(F)(F)F)c(F)c3)nc2C)ccc1OCC(=O)O [GW0742] (first compound 0.16 µM, partner dose 2 µM)",cell count,[1],99.5%
same,cell count,[2],79.6%
same,cell count,[3],91%
same,cell count,[4],111%
same,cell count,[5],62.9%
same,cell count,[6],93.1%
same,cell count,[8],88%
same,cell count,[9],93%
same,cell count,[7],87.3%
"COc1cc([C@@H]2c3cc4c(cc3[C@@H](O[C@@H]3O[C@@H]5CO[C@@H](C)O[C@H]5[C@H](O)[C@H]3O)[C@H]3COC(=O)[C@H]23)OCO4)cc(OC)c1O [etoposide] + C[C@]12O[C@H](C[C@]1(O)CO)n1c3ccccc3c3c4c(c5c6ccccc6n2c5c31)CNC4=O [Lestaurtinib] (first compound 0.02 µM, partner dose 0.004 µM)",cell count,[1],92%
same,cell count,[2],81.9%
same,cell count,[3],101%
same,cell count,[4],95.6%
same,cell count,[5],119%
same,cell count,[6],99.3%
same,cell count,[7],68.4%
"COc1cc(Nc2ncc(F)c(Nc3ccc4c(n3)NC(=O)C(C)(C)O4)n2)cc(OC)c1OC [Tamatinib] + Cc1cc(SCc2sc(-c3ccc(C(F)(F)F)c(F)c3)nc2C)ccc1OCC(=O)O [GW0742] (first compound 0.4 µM, partner dose 2 µM)",cell count,[1],96%
same,cell count,[2],84.8%
same,cell count,[3],69.1%
same,cell count,[4],110%
same,cell count,[5],97.6%
same,cell count,[6],90.1%
same,cell count,[8],86.6%
same,cell count,[9],76.6%
same,cell count,[7],77.4%
"O=C(Nc1ccccc1)c1cc([N+](=O)[O-])ccc1Cl + C/C(O)=C(\C#N)C(=O)Nc1cc(Br)ccc1Br [LFM-A13] (first compound 2 µM, partner dose 2 µM)",cell count,[1],90.4%
same,cell count,[2],102%
same,cell count,[3],87.3%
same,cell count,[4],109%
same,cell count,[5],85.7%
same,cell count,[6],83.7%
same,cell count,[8],118%
same,cell count,[9],114%
same,cell count,[7],90.9%
"Cc1ccc(Nc2nccc(N(C)c3ccc4c(C)n(C)nc4c3)n2)cc1S(N)(=O)=O [Pazopanib] + C[C@]12O[C@H](C[C@]1(O)CO)n1c3ccccc3c3c4c(c5c6ccccc6n2c5c31)CNC4=O [Lestaurtinib] (first compound 0.4 µM, partner dose 0.004 µM)",cell count,[1],77.7%
same,cell count,[2],108%
same,cell count,[3],95.3%
same,cell count,[4],88.9%
same,cell count,[5],83.3%
same,cell count,[6],81.7%
same,cell count,[7],77.9%
"CC1(C)CCC(c2ccc(Cl)cc2)=C(CN2CCN(c3ccc(C(=O)NS(=O)(=O)c4ccc(N[C@H](CCN5CCOCC5)CSc5ccccc5)c(S(=O)(=O)C(F)(F)F)c4)cc3)CC2)C1 + C[C@]12O[C@H](C[C@]1(O)CO)n1c3ccccc3c3c4c(c5c6ccccc6n2c5c31)CNC4=O [Lestaurtinib] (first compound 0.4 µM, partner dose 0.004 µM)",cell count,[1],111%
same,cell count,[2],90%
same,cell count,[3],72.8%
same,cell count,[4],74.4%
same,cell count,[5],105%
same,cell count,[6],92.5%
same,cell count,[7],100%
"C/C(O)=C(\C#N)C(=O)Nc1cc(Br)ccc1Br + O=c1cc(-c2cccc3c2Sc2ccccc2S3)oc(N2CCOCC2)c1 [KU55933] (first compound 2 µM, partner dose 1 µM)",cell count,[1],94.8%
same,cell count,[2],84.8%
same,cell count,[3],96.9%
same,cell count,[4],116%
same,cell count,[5],91.5%
same,cell count,[6],103%
same,cell count,[8],108%
same,cell count,[9],81.8%
same,cell count,[7],97%
"COc1ccc(-c2ccc3c(N4CCOCC4)nc(N4C[C@@H](C)O[C@@H](C)C4)nc3n2)cc1CO + C/C(O)=C(\C#N)C(=O)Nc1cc(Br)ccc1Br [LFM-A13] (first compound 0.02 µM, partner dose 2 µM)",cell count,[1],93.6%
same,cell count,[2],89.4%
same,cell count,[3],85.7%
same,cell count,[4],77.2%
same,cell count,[5],86.7%
same,cell count,[6],76.6%
same,cell count,[8],104%
same,cell count,[9],88.1%
same,cell count,[7],87.1%
"O=C(Nc1cccc(Cl)c1)Nc1ncc(CCNc2ncnc3ccsc23)s1 + Cc1cc(SCc2sc(-c3ccc(C(F)(F)F)c(F)c3)nc2C)ccc1OCC(=O)O [GW0742] (first compound 0.0008 µM, partner dose 2 µM)",cell count,[1],104%
same,cell count,[2],103%
same,cell count,[3],73.7%
same,cell count,[4],110%
same,cell count,[5],89.6%
same,cell count,[6],107%
same,cell count,[8],105%
same,cell count,[9],93.2%
same,cell count,[7],94.7%
"CCc1ccc(CCOc2ccc(CC3SC(=O)NC3=O)cc2)nc1 (stereo not drawn) [pioglitazone] + Cc1cc(SCc2sc(-c3ccc(C(F)(F)F)c(F)c3)nc2C)ccc1OCC(=O)O [GW0742] (first compound 2 µM, partner dose 2 µM)",cell count,[1],97.6%
same,cell count,[2],94.6%
same,cell count,[3],93.8%
same,cell count,[4],88.9%
same,cell count,[5],86.3%
same,cell count,[6],112%
same,cell count,[8],87%
same,cell count,[9],89.7%
same,cell count,[7],105%
"COc1ccc2c(c1)CCC1C2CCC2(C)C(NCCCCCCN3C(=O)C=CC3=O)CCC12 (stereo not drawn) + Cc1cc(SCc2sc(-c3ccc(C(F)(F)F)c(F)c3)nc2C)ccc1OCC(=O)O [GW0742] (first compound 0.4 µM, partner dose 2 µM)",cell count,[1],87.8%
same,cell count,[2],122%
same,cell count,[3],93%
same,cell count,[4],126%
same,cell count,[5],94.4%
same,cell count,[6],99%
same,cell count,[8],85.4%
same,cell count,[9],97.5%
same,cell count,[7],115%
"O=c1[nH]nc(Sc2ncc([N+](=O)[O-])s2)n1-c1ccc2c(c1)OCCO2 + C[C@]12O[C@H](C[C@]1(O)CO)n1c3ccccc3c3c4c(c5c6ccccc6n2c5c31)CNC4=O [Lestaurtinib] (first compound 0.2 µM, partner dose 0.004 µM)",cell count,[2],99.2%
same,cell count,[3],104%
same,cell count,[4],85.9%
same,cell count,[5],104%
same,cell count,[6],99.3%
same,cell count,[7],105%
